In PubChem BioAssay AID624417 (National Center for Advancing Translational Sciences (NCATS), 2012):
Screen size: about 410,000 compounds; about 6,400 (1.6%) were called active. This list was built around the results that the source calls inconclusive (neither active nor inactive); the mix of calls is not that of the screen. Calls come from the whole dose curve; as a rule, active = well fitted inhibition curve with a large enough effect; inconclusive = small, poorly fitted or top-dose-only effect; inactive = no such curve, though single readings can be large or run the other way. No potency is given beside an inconclusive call; the fits are too rough.
% is set by controls: 0 for no effect and ±100 for the full control effect; potency is the fitted concentration of half-maximal effect; tags give direction and shape of the fitted curve.
Note: nearly all actives have a fitted effect of over 55% in size.

The compounds below were run against Glucagon-like peptide 1 receptor (Homo sapiens) (UniProt P43220) (assay: qHTS of GLP-1 Receptor Inverse Agonists (Inhibition Mode)). Settings: HEK293 GLP-1R CRE-luciferase, luminescence, 24 h, GLP-1R form is constitutively active; activity change, negative = inhibition: at 38.3 µM (top of the series) unless noted.
UniProt P43220, sequence (P43220 whole entry, looked up): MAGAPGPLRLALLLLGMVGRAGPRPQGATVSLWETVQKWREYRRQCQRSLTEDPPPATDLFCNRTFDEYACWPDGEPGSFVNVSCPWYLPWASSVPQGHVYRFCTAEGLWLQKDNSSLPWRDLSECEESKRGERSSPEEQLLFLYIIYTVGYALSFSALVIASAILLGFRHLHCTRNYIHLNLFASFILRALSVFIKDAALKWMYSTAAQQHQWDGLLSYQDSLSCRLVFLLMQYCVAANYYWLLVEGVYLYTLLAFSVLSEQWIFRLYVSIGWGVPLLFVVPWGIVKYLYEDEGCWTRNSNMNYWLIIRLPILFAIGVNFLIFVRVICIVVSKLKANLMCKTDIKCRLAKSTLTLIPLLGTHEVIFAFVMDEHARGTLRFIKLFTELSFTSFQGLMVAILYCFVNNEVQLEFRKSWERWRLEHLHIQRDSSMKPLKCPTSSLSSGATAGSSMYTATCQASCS
Procedure, shortened: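 Readout was luciferase luminescence, measured 12 min after detection reagent at room temperature. Beforehand, GLP-1R reporter HEK293 cells had sat 12 h, then received compounds for 24 hr at 37 deg C.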
With `COc1ccccc1NS(=O)(=O)c1ccc(C(=O)N2CCCCCC2)cc1` the Potency was inconclusive [inhibitor, single point]. For `CCc1c(-c2cccc(OC)c2)ncn1Cc1cccc(-c2ccccc2)c1`, the Potency was inconclusive [inhibitor, partial curve, poor fit]. With `CCC(C)NC(=O)c1[nH]c2cc(OC)ccc2c1Sc1ccc(C)cc1` (centres undefined) the Potency was inconclusive [inhibitor, single point]. `Cc1cccc(-c2ncc(S(=O)(=O)C(C)(C)C)c(N)n2)c1` was tested, and the “activity change, negative = inhibition” value was inactive: 1.41%. `O=C(/C=C/c1cccs1)c1ccc(Br)cc1` was tested, and the Potency was inconclusive [inhibitor, single point]. `CC(NC1=CC(=O)c2cccnc2C1=O)C(O)c1ccccc1` (centres undefined) was tested, and the Potency was inconclusive [inhibitor, single point]. For `CCCCSc1nc2sc3c(c2c(=O)n1-c1ccccc1)CCN(C)C3`, the Potency was inconclusive [inhibitor, single point]. In the case of `O=C(Nc1cccc(C(F)(F)F)c1)N(Cc1ccc(Cl)cc1)CC(O)C(F)(F)F` (centres undefined), the Potency is reported as inconclusive [inhibitor, single point]. For `COc1cc2c(C(=O)N3CCN(c4ccccc4)CC3)c(C)oc2cc1Br`, the Potency was inconclusive [inhibitor, full curve, poor fit]. With `COc1nnc(-c2ccc(N3CCCCC3)c(NC(=O)C3CCCCC3)c2)c2ccccc12` the Potency was inconclusive [inhibitor, full curve, poor fit]. For `CC1CN(C(=O)Nc2ccc(C(=O)NCCc3ccccc3Cl)cc2)c2ccccc2S1` (centres undefined), the Potency was inconclusive [inhibitor, single point]. In the case of `CCOC(=O)c1[nH]ncc1CN1CCCC(C(=O)c2ccc(C(C)(C)C)cc2)C1` (centres undefined), the Potency is reported as inconclusive [inhibitor, single point]. For `CC(CNC(=O)CN1C(=O)COc2ccc(S(=O)(=O)N3CCCCC3)cc21)c1ccccc1` (centres undefined), the Potency was inconclusive [inhibitor, partial curve, poor fit]. In the case of `COc1ccccc1C1CC(=O)Oc2c(C(C)C)ccc(C)c21` (centres undefined), the Potency is reported as inconclusive [inhibitor, single point]. `C#Cc1cccc(Nc2nc(NC(C)C)nc3ccsc23)c1` was tested, and the Potency was inconclusive [inhibitor, single point]. For `Cc1ccc(-n2ncc(C(=O)NCCCN3CCc4ccccc4C3)c2C2CCN(C(=O)OC(C)(C)C)CC2)cc1C`, the Potency was inconclusive [inhibitor, single point]. For `NCC1CC2c3ccccc3C1c1ccccc12` (centres undefined), the Potency was inconclusive [inhibitor, single point]. In the case of `CC(C)CN(C(=O)CCNC(=O)c1ccc(Cl)cc1)C1CCS(=O)(=O)C1` (centres undefined), the “activity change, negative = inhibition” value is reported as inactive: -3.3%. In the case of `COc1nccnc1NS(=O)(=O)c1ccc(NC(=S)NC(=O)c2ccccc2F)cc1`, the “activity change, negative = inhibition” value is reported as inactive: 15.2%. With `O=C(Nc1ccc(Cl)cc1)C1CCN(S(=O)(=O)c2ccc(Br)s2)CC1` the Potency was inconclusive [inhibitor, single point]. `Oc1ccc(/C=N/Nc2cc(N3CCOCC3)nc(N3CCOCC3)n2)cc1O` was tested, and the “activity change, negative = inhibition” value was inactive: 24.7%. With `COc1ccc(N2CCN(c3oc(-c4ccccc4OC)nc3C#N)CC2)cc1` the “activity change, negative = inhibition” value was inactive: 0%. In the case of `O=C(CN1CCCCCC1)Nc1cccc([N+](=O)[O-])c1`, the “activity change, negative = inhibition” value is reported as inactive: -9.28%. In the case of `Oc1[nH]c2ccc(Br)cc2c1N=Nc1ccc(F)cc1`, the Potency is reported as inconclusive [inhibitor, partial curve, poor fit]. For `Cc1cccc(OCC(=O)Nc2ccc3c(c2)N(C)C(=O)c2ccccc2S3)c1`, the Potency was inconclusive [inhibitor, partial curve, poor fit]. For `CC1CCN(Cc2c(C(=O)N/N=C/c3cc(Cl)ccc3O)nnn2-c2nonc2N)CC1`, the Potency was inconclusive [inhibitor, full curve, poor fit]. `Clc1ccccc1OCc1nc(-c2ccc(Br)o2)no1` was tested, and the Potency was inconclusive [inhibitor, single point]. In the case of `CCOc1ccc(NC(=O)CCN2C(=O)CSc3ccccc32)cc1`, the Potency is reported as inconclusive [inhibitor, single point]. With `CC(=O)Oc1ccccc1Cn1c(C)c(C(=O)NCc2cccc([N+](=O)[O-])c2)sc1=O` the Potency was inconclusive [inhibitor, single point]. `O=C(c1ccco1)N1CCN(Cc2c(Cl)cccc2Cl)CC1` was tested, and the Potency was inconclusive [inhibitor, partial curve, poor fit]. For `CC(/C=N/NC(=O)CSc1ccccn1)=C\c1ccc(C(C)C)cc1`, the Potency was inconclusive [inhibitor, single point]. In the case of `OCCOCCNc1ncnc2c1c(-c1ccccc1)cn2-c1ccccc1`, the “activity change, negative = inhibition” value is reported as inactive: 2.48%. In the case of `O=Cc1ccc(-c2cccs2)s1`, the Potency is reported as inconclusive [inhibitor, full curve, poor fit]. With `COCc1c(C(=O)OCC(=O)N2c3ccccc3NC(=O)C2(C)C)oc2ccccc12` the Potency was inconclusive [inhibitor, single point]. With `Cc1ccccc1C1c2[nH]c3ccccc3c2CCN1Cc1cccn1-c1ncccn1` (centres undefined) the Potency was inconclusive [inhibitor, single point]. With `COc1ccc(C(=O)N2CCC(C(=O)Nc3ccccc3Cl)CC2)cc1` the “activity change, negative = inhibition” value was inactive: -1.55%. With `CCCn1cc(S(=O)(=O)c2ccccc2)c(=O)c2cc(F)c(N3CCCC3)cc21` the “activity change, negative = inhibition” value was inactive: 3.97%. For `O=C(CCCNC(=O)/C(=C/c1ccc(F)cc1)NC(=O)c1ccccc1)OCc1ccccc1`, the Potency was inconclusive [inhibitor, single point]. With `CC(C)(C)OC(=O)CN1C(=O)NC2(CCCc3ccccc32)C1=O` (centres undefined) the Potency was inconclusive [inhibitor, partial curve, poor fit]. In the case of `Cc1ccc(NC(=S)N2CCCN(Cc3ccc(F)cc3)C2)c(C)c1`, the Potency is reported as inconclusive [inhibitor, partial curve, poor fit]. In the case of `CCOC(=O)c1cc(C)sc1NC(=O)CN1CCN(C(=O)c2ccco2)CC1`, the Potency is reported as inconclusive [inhibitor, single point]. In the case of `CCc1ccccc1NC(=O)c1cc(S(=O)(=O)NC2CCCC2)ccc1F`, the Potency is reported as inconclusive [inhibitor, single point]. In the case of `CCCCOCCCNC(=O)C[C@@H]1C[C@@]2(C(=O)OCC)CCCC=C2N(CCC2=CCCCC2)C1=O`, the Potency is reported as inconclusive [inhibitor, single point]. `CCC(=O)NNc1nc2c(C)c(C)ccc2s1` was tested, and the “activity change, negative = inhibition” value was inactive: 6.31%. In the case of `O=C(CN(C(=O)CNC(=O)c1ccco1)c1ccc(Cl)c(Cl)c1)NC1CCCCC1`, the Potency is reported as inconclusive [inhibitor, single point]. With `CCOc1ccc(-c2nc(CSCC(=O)NC3CCN(Cc4ccccc4)CC3)c(C)o2)cc1` the Potency was active: 8.91 µM. `c1ccc(C(=NNc2nc3ccccc3s2)c2ccccn2)cc1` was tested, and the Potency was inconclusive [inhibitor, full curve, poor fit]. For `CCCN(c1ccc(C)cc1)c1nc(=O)c2cccnc2s1`, the Potency was inconclusive [inhibitor, full curve, poor fit]. For `CCOc1ccccc1NS(=O)(=O)c1ccc2oc(=O)c3ncn(C)c3c2c1`, the Potency was inconclusive [inhibitor, single point]. For `CCN(CC(=O)Nc1cc(Cl)ccc1C)C(=O)CCS(=O)(=O)c1ccc(Cl)cc1`, the Potency was inconclusive [inhibitor, partial curve, poor fit]. `CCn1cc(C(=O)NC(C)c2ccccc2)c(=O)c2cc(S(=O)(=O)N3CCc4ccccc4C3)ccc21` (centres undefined) was tested, and the Potency was inconclusive [inhibitor, partial curve, poor fit]. With `O=C(N/N=C/c1ccc(O)cc1)Nc1cccc2nsnc12` the Potency was inconclusive [inhibitor, single point]. `CCOC(=O)C(NC(=O)c1ccccc1)(Nc1cccc(C)n1)C(F)(F)F` (centres undefined) was tested, and the Potency was inconclusive [inhibitor, single point]. `CCOc1ccccc1N(C)C(=O)NCc1noc2ccccc12` was tested, and the “activity change, negative = inhibition” value was inactive: 1.1%. `O=C(CCl)N=c1sccn1Cc1ccccc1Cl` was tested, and the Potency was inconclusive [inhibitor, partial curve, poor fit]. In the case of `Cn1c2ccccc2c2cnn(CC(=O)Nc3ccccc3Br)c(=O)c21`, the “activity change, negative = inhibition” value is reported as inactive: 17%. For `COc1cccc(CN2CCC(C(=O)N3CCN(Cc4ccc5c(c4)OCO5)CC3)CC2)c1`, the Potency was inconclusive [inhibitor, partial curve]. `Cc1cc(C)c2sc(N(CCN(C)C)C(=O)CCS(=O)(=O)c3ccccc3)nc2c1` was tested, and the Potency was inconclusive [inhibitor, single point]. `CC(C)(C)N/N=C1\CC(c2ccccc2)Oc2ccccc21` (centres undefined) was tested, and the Potency was inconclusive [inhibitor, full curve, poor fit]. `COC(=O)Cc1ccc(N(Cc2ccccc2F)S(=O)(=O)c2ccc(C)cc2)cc1` was tested, and the Potency was inconclusive [inhibitor, partial curve, poor fit]. With `CCN1CCN(c2cc(C)c3cc(NC(=S)N4CCC5(CC4)OCCO5)ccc3n2)CC1` the Potency was inconclusive [inhibitor, partial curve, poor fit]. `COc1ccc(OC)c(CNC(=O)c2cccc(NC(=O)N3CCSc4ncccc43)c2)c1` was tested, and the “activity change, negative = inhibition” value was inactive: 2.63%. `O=C(CN1CCC(NC(=O)Nc2ccccc2)CC1)Nc1ccccc1F` was tested, and the Potency was inconclusive [inhibitor, partial curve]. `CC(C)Sc1ncc(Cl)c(C(=O)Nc2ccc(S(=O)(=O)N3CCCCC3C)cc2)n1` (centres undefined) was tested, and the Potency was inconclusive [inhibitor, partial curve].
